According to paper PMC10691697, “A small molecule exerts selective antiviral activity by targeting the human cytomegalovirus nuclear egress complex” (PLOS Pathogens, 2023):

Assays:
[1] = test system: HCMV expressing GFP (53-F BADGFP); conditions: 6 dpi, replicates
HSV-1 strain KOS = assay type: cell-based, herpes simplex virus 1; conditions: 2 dpi, replicates
Description: Standard plaque reduction assays used to assess the antiviral activity of GK1 and GK2 against HSV in HFF cells were performed as described with minor modifications. Briefly, 1x10^5 HFF cells in each well of a 24-well plate were infected with ~ 100 PFU/well of HSV-1 strain KOS. After 2h, the inocula was removed and DMEM containing methylcellulose, 1% DMSO, and various concentrations of GK1 or GK2 was added. After two days, plaques were stained with crystal violet and counted. ED50’s for GK1 or GK2 were calculated as described above.

HFF cells = assay: in vitro; assay type: cell-based, human; conditions: replicates
Description: Cytotoxicities of various compounds were determined using a WST-1 assay that measures metabolic activity (Roche), and CC50’s were calculated as described previously.

Compound: C=CC(=O)Nc1cccc(Oc2ccnc3[nH]ccc23)c1 [GK2]
- anti-HCMV: number of plaques relative to DMSO vehicle ([1]; 0.20 μM compound): 100.0000
- anti-HCMV: number of plaques relative to DMSO vehicle ([1]; 0.40 μM compound): 95.0000 and 84.0000 and 72.0000
- anti-HSV: number of plaques relative to DMSO vehicle (HSV-1 strain KOS; 0.40 μM compound): 100.0000 and 85.0000 and 93.0000
- anti-HSV: number of plaques relative to DMSO vehicle (HSV-1 strain KOS; 0.80 μM compound): 100.0000 and 87.0000 and 80.0000
- anti-HSV: number of plaques relative to DMSO vehicle (HSV-1 strain KOS; 1.60 μM compound): 95.0000 and 85.0000 and 80.0000
- cytotoxicity on HFF: WST-1 absorbance relative to DMSO vehicle (HFF cells; 0.20 μM compound, 6 days): 95.0000 and 96.0000 and 90.0000
- cytotoxicity on HFF: WST-1 absorbance relative to DMSO vehicle (HFF cells; 0.40 μM compound, 2 days): 99.0000 and 100.0000 (2×)
- cytotoxicity on HFF: WST-1 absorbance relative to DMSO vehicle (HFF cells; 0.40 μM compound, 6 days): 94.0000 and 93.0000 and 97.0000
- cytotoxicity on HFF: WST-1 absorbance relative to DMSO vehicle (HFF cells; 0.80 μM compound, 2 days): 100.0000 (2×) and 94.0000
- cytotoxicity on HFF: WST-1 absorbance relative to DMSO vehicle (HFF cells; 1.60 μM compound, 2 days): 100.0000 and 84.0000 and 95.0000
- cytotoxicity on HFF: WST-1 absorbance relative to DMSO vehicle (HFF cells; 50.00 μM compound, 2 days): 45.0000 and 35.0000 and 40.0000

Values joined by “and” are separate entries in the source; they are usually repeats but may differ in a detail not shown here. Equal entries are not always repeated. Where two headings read alike, the source gives them in different places.
